{"source": "PubChem BioAssay AID504339", "about": "(National Center for Advancing Translational Sciences (NCATS), 2011)", "note": "Screen size: about 390,000 compounds; about 17,000 (4.4%) were called active. Inconclusive results, whose numbers are uncertain, are shown with a selection of clear calls. Calls come from the whole dose curve; as a rule, active = well fitted inhibition curve with a large enough effect; inconclusive = small, poorly fitted or top-dose-only effect; inactive = no such curve, though single readings can be large or run the other way. Potencies of inconclusive entries are doubtful fits and often do not repeat. Some compounds were tested as several samples or in several runs, with calls that do not always agree. % is set by controls: 0 for no effect and ±100 for the full control effect; potency is the fitted concentration of half-maximal effect; tags give direction and shape of the fitted curve.", "data": [{"biological_target": "Lysine-specific demethylase 4A (Homo sapiens) (UniProt O75164)", "sequence (O75164 whole entry, looked up, the tested form may be a part)": "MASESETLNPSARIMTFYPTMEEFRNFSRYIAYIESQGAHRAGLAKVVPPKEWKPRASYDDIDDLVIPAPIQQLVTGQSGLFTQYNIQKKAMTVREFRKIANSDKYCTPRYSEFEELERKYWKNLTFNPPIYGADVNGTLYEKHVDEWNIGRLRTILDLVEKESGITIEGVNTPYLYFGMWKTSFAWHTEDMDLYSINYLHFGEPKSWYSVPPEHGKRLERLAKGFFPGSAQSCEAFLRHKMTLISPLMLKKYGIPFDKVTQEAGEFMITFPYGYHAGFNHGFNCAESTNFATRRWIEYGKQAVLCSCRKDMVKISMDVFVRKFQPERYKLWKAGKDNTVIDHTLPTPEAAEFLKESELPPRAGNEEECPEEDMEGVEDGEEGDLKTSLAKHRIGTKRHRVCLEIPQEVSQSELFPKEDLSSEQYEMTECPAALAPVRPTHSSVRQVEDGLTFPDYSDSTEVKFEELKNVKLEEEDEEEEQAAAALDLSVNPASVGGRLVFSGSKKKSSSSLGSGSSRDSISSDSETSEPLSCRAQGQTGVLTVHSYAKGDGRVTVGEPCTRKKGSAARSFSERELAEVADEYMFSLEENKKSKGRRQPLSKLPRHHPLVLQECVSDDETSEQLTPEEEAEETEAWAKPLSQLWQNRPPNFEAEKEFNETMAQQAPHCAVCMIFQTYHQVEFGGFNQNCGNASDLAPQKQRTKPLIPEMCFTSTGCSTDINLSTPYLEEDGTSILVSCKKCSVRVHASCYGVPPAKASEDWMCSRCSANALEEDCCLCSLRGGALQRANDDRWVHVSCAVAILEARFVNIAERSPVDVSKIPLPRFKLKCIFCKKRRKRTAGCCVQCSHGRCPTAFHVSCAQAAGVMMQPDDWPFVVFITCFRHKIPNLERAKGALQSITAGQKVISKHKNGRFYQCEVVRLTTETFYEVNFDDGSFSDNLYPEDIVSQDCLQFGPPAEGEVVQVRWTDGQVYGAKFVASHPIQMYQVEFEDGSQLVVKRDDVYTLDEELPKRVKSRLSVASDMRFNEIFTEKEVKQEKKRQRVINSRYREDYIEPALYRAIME", "assay": "qHTS Assay for Inhibitors of JMJD2A-Tudor Domain; note: nearly all actives have a fitted effect of over 50% in size", "conditions": "AlphaScreen JMJD2A-Tudor / H3K4me3 peptide binding; activity change, negative = inhibition: at 114 µM (top of the series)", "values": [{"smiles": "Cc1ccc(CN=c2c([N+](=O)[O-])nn(-c3cccc(Cl)c3)n2O)cc1", "Potency": "inconclusive: 56.2 µM [inhibitor, single point]"}, {"smiles": "O=C(CN1CCN(c2ccccn2)CC1)Nc1cccc(Br)c1", "activity change, negative = inhibition": "inactive: -22%"}, {"smiles": "COc1ccc(-c2onc(C)c2C)cc1S(=O)(=O)NCc1ccc(C)o1", "activity change, negative = inhibition": "inactive: -29.2%"}, {"smiles": "O=S(=O)(NCc1ccccn1)c1cccc2nsnc12", "Potency": "inconclusive: 39.8 µM [inhibitor, single point]"}, {"smiles": "O=S(=O)(Nc1c(O)ccc2ccccc12)c1cccc2ccccc12", "Potency": "active: 79.4 µM"}, {"smiles": "CCOc1ccc(S(=O)(=O)N2CCC(C(=O)NCC3CCCO3)CC2)cc1", "note": "(configuration not stated)", "activity change, negative = inhibition": "inactive: -11.7%"}, {"smiles": "Cc1c(Cl)cccc1NC(=O)CC(c1ccc(F)cc1)N1Cc2ccccc2C1=O", "note": "(configuration not stated)", "activity change, negative = inhibition": "inactive: 2.76%"}, {"smiles": "Cc1ccc2[nH]cc(C(c3ccccc3)c3ccc(C)s3)c2c1", "note": "(configuration not stated)", "Potency": "inconclusive: 50.1 µM [inhibitor, partial curve, poor fit]"}, {"smiles": "CCOc1cccc(CC(=O)NCc2ccc3c(c2)CCN3C(C)=O)c1OCC", "activity change, negative = inhibition": "inactive: -14.3%"}, {"smiles": "O=C1N(Cc2cccc(Cl)c2)C[C@@H]2C[C@@H](c3cccn3-c3cccnc3)N3CCC[C@@]123", "Potency": "inconclusive: 28.2 µM [inhibitor, partial curve]"}, {"smiles": "CCOc1ccc(C2=NNC(c3cccnc3)=Nc3ccc(OC)cc32)cc1", "Potency": "inconclusive: 44.7 µM [inhibitor, partial curve]"}, {"smiles": "CC(C)NC(=O)Cn1nnc(-c2cccc(NC(=O)c3ccccc3F)c2)n1", "Potency": "inconclusive: 50.1 µM [inhibitor, partial curve]"}, {"smiles": "C=CCn1c(C)cc(C2=NNC(=NCC)SC2)c1C", "Potency": "inconclusive: 50.1 µM [inhibitor, partial curve]"}, {"smiles": "CC(C)c1c(C(=O)N/N=C/c2ccc3c(c2)OCO3)nnn1-c1nonc1N", "Potency": "inconclusive: 63.1 µM [inhibitor, partial curve]"}, {"smiles": "Cc1cccc(C(=O)c2c(N)sc3c2CCC(C)C3)c1", "note": "(configuration not stated)", "Potency": "inconclusive: 12.6 µM [inhibitor, partial curve]"}, {"smiles": "O=C(CSc1nnnn1C1CCCCC1)N1CCCC1", "activity change, negative = inhibition": "inactive: -5%"}, {"smiles": "COc1ccc(-c2cc(-c3c(O)c(OC)c4occc4c3OC)[nH]n2)cc1", "Potency": "inconclusive: 44.7 µM [inhibitor, partial curve]"}, {"smiles": "CC(=O)c1ccc(OCCCC(=O)OCC(=O)Nc2ccc3[nH]c(=O)[nH]c3c2)cc1", "activity change, negative = inhibition": "inactive: -30.3%"}, {"smiles": "CCOc1cccc(C(=O)NC(=S)Nc2ccc(N3CCCC3)cc2)c1", "Potency": "inconclusive: 3.16 µM [inhibitor, full curve]"}, {"smiles": "O=C(Nc1cc2c(cc1C(=O)c1cccc(Br)c1)OCCO2)c1ccccc1F", "Potency": "inconclusive: 15.8 µM [inhibitor, partial curve]"}, {"smiles": "Cc1ccc2nc(N(CCCN(C)C)C(=O)CN3C(=O)c4ccccc4C3=O)sc2c1", "Potency": "inconclusive: 50.1 µM [inhibitor, partial curve]"}, {"smiles": "CC(=O)c1cc(C(C)=O)c(C)nc1C", "activity change, negative = inhibition": "inactive: -12.8% [at 57.1 µM]"}, {"smiles": "Cc1cc(N2CCCC2)ccc1NC(=O)COc1ccc(Cl)cc1", "Potency": "inconclusive: 44.7 µM [inhibitor, partial curve]"}, {"smiles": "Cc1ccc(C(=O)Oc2ccc(Cl)c3cccnc23)cc1[N+](=O)[O-]", "Potency": "inconclusive: 25.1 µM [inhibitor, partial curve]"}, {"smiles": "Cc1cccc(N2CCN(c3ccc(C(=O)O)cc3NC(=O)c3cccc(Cl)c3)CC2C)c1", "note": "(configuration not stated)", "Potency": "active: 56.2 µM"}, {"smiles": "Cc1cccc(C(=O)NC(=S)NNC(=O)COc2c(C)cccc2C)c1", "Potency": "inconclusive: 31.6 µM [inhibitor, single point]"}, {"smiles": "CCOC(=O)C1CCN(c2c(C(=O)c3ccc(OC)cc3)cnc3ccccc23)CC1", "Potency": "inconclusive: 12.6 µM [inhibitor, full curve]"}, {"smiles": "COc1ccc(-c2csc(Nc3ccc(S(=O)(=O)Nc4cc(OC)nc(OC)n4)cc3)n2)cc1", "Potency": "inconclusive: 50.1 µM [inhibitor, partial curve]"}, {"smiles": "CCCN1C2CCCC1CC(NC(=O)NC1CCCCC1)C2", "note": "(configuration not stated)", "activity change, negative = inhibition": "inactive: -11%"}, {"smiles": "Cc1ccc(Cl)cc1NC(=O)CN1C(=O)CSc2ccc(S(=O)(=O)N3CCCC3)cc21", "activity change, negative = inhibition": "inactive: -6.23%"}, {"smiles": "O=C(NCc1n[nH]c(=S)n1-c1ccccc1)c1ccc(S(=O)(=O)N2CCCCC2)cc1", "Potency": "inconclusive: 17.8 µM [inhibitor, single point]"}, {"smiles": "CN(C)c1ccc(C2CC(=O)C=C(Nc3ccccc3N)C2)cc1", "note": "(configuration not stated)", "Potency": "inconclusive: 11.2 µM [inhibitor, full curve]"}, {"smiles": "COc1c2c(cc3ccc(=O)oc13)CCO2", "activity change, negative = inhibition": "inactive: -3.61%"}, {"smiles": "O=C(Nc1ncccn1)c1cc(-c2cccc(Br)c2)nc2ccccc12", "Potency": "inconclusive: 56.2 µM [inhibitor, single point]"}, {"smiles": "COC(=O)c1ccccc1NC(=O)Cn1c(=O)n(CCC(=O)NCc2ccccc2OC)c(=O)c2ccccc21", "activity change, negative = inhibition": "inactive: 3.07%"}, {"smiles": "CCOC(=O)c1c(S(=O)(=O)NCC(=O)N2CCN(c3cc(C)ccc3C)CC2)c(C)n(C)c1C", "Potency": "inconclusive: 39.8 µM [inhibitor, full curve, poor fit]"}, {"smiles": "C[C@]12c3[nH]c4ccc(Cl)cc4c3CCN1C(=O)[C@@H](CC(=O)NCc1cccc(C(F)(F)F)c1)C[C@@H]2C(=O)N1CCCCC1", "Potency": "inconclusive: 35.5 µM [inhibitor, partial curve]"}, {"smiles": "Cc1c(C(=O)Nc2ccc(Nc3ccccc3)cc2)cccc1[N+](=O)[O-]", "Potency": "inconclusive: 44.7 µM [inhibitor, full curve]"}, {"smiles": "COc1ccc(C2NC(=S)NC3=C2CCc2ccccc23)cc1OC", "note": "(configuration not stated)", "Potency": "inconclusive: 22.4 µM [inhibitor, full curve, poor fit]"}, {"smiles": "Cc1ccccc1C(=O)NNC(=O)/C=C\\C(=O)O", "Potency": "active: 50.1 µM"}, {"smiles": "COc1ccc2occ(C(=O)c3coc4ccc(O)c(CN(C)C)c34)c2c1", "Potency": "inconclusive: 39.8 µM [inhibitor, partial curve]"}, {"smiles": "COc1ccc(N2CCN(C(C)C(=O)N3CCc4ccccc43)CC2)cc1", "note": "(configuration not stated)", "Potency": "inconclusive: 14.1 µM [inhibitor, full curve, poor fit]"}, {"smiles": "O=C(O)c1ccccc1N/N=C/C1=C(N2CCOCC2)C(=C\\c2ccccc2)/CC1", "Potency": "inconclusive: 79.4 µM [inhibitor, partial curve]"}, {"smiles": "O=C(CN1CCOCC1)N/N=C/c1ccccc1", "activity change, negative = inhibition": "inactive: 0.73%"}, {"smiles": "COc1cc(C(=O)OCc2cc(=O)c(O)co2)ccc1OC(F)F", "activity change, negative = inhibition": "inactive: -8.57%"}, {"smiles": "c1csc(-c2csc3nc(CN4CCOCC4)nc(NCc4ccc5c(c4)OCO5)c23)c1", "Potency": "inconclusive: 22.4 µM [inhibitor, partial curve, poor fit]"}, {"smiles": "COc1ccc(Cl)cc1S(=O)(=O)Nc1cccc(-c2ccc(N3CCCC3)nn2)c1", "activity change, negative = inhibition": "inactive: -24.3%"}, {"smiles": "C/C(=N/NS(=O)(=O)c1ccccc1)c1ccc(Cl)cc1", "activity change, negative = inhibition": "inactive: -23.8%"}, {"smiles": "O=C(c1ccc2c(c1)OCO2)N(Cc1ccco1)C1(C(=O)NC2CCCCC2)CCCCC1", "activity change, negative = inhibition": "inactive: -22.3%"}, {"smiles": "COc1ccc(C2=CC3=C(Br)C(=O)C(C)(OC(=O)C4CCCC4)C(=O)C3=CO2)cc1", "note": "(configuration not stated)", "Potency": "active: 50.1 µM"}, {"smiles": "Cc1ccc(NC(=S)N2CCc3[nH]c4ccccc4c3C2)cc1", "Potency": "inconclusive: 22.4 µM [inhibitor, full curve]"}, {"smiles": "COc1ccc(NC(=O)Cn2c(=O)n(Cc3ccc4c(c3)OCO4)c(=O)c3ccc(C(=O)NC4CCCCC4)cc32)cc1", "activity change, negative = inhibition": "inactive: -10%"}, {"smiles": "Cc1cc(=O)c2c(O)c(O)ccc2o1", "Potency": "active: 3.16 µM"}, {"smiles": "CCn1c(C)c(C)c2cc(C(=O)NCc3ccc(OC(C)C)cc3)ccc21", "Potency": "inconclusive: 22.4 µM [inhibitor, full curve]"}, {"smiles": "Cc1nc(SCC(=O)Nc2ccc(CN3CCCC3)cc2)c2c(C)c(C)sc2n1", "activity change, negative = inhibition": "inactive: -17.7%"}, {"smiles": "O=C(Nc1ccc2c(c1)OCO2)c1cc(-c2ccncc2)nc2ccccc12", "Potency": "inconclusive: 31.6 µM [inhibitor, partial curve]"}, {"smiles": "CN(CCCNC(=O)c1ccc(N2CCCC2=O)cc1)c1ccccc1", "Potency": "inconclusive: 79.4 µM [inhibitor, partial curve]"}, {"smiles": "COc1ccc(NC(=O)[C@H](C)NC(N)=O)cc1S(=O)(=O)Nc1cc(C)ccc1Br", "activity change, negative = inhibition": "inactive: -13.9%"}, {"smiles": "O=C1C=CC(=O)N1CCNc1ncc(C(F)(F)F)cc1Cl", "Potency": "inconclusive: 70.8 µM [inhibitor, single point]"}, {"smiles": "COc1ccc(-c2csc(NC(=O)c3ccccc3NS(=O)(=O)c3ccc(C)cc3)n2)cc1", "Potency": "inconclusive: 39.8 µM [inhibitor, partial curve]"}, {"smiles": "Cc1ccc(C(=O)Nc2ccc(Cl)cn2)cc1", "activity change, negative = inhibition": "inactive: 4.29%"}, {"smiles": "NNc1nc(-c2ccccc2)nc(-c2ccccc2)c1Br", "activity change, negative = inhibition": "inactive: -29.1%"}, {"smiles": "CC1(C2CC2)NC(=O)N(CC(=O)N2CCN(c3ccc(F)cc3)CC2)C1=O", "note": "(configuration not stated)", "activity change, negative = inhibition": "inactive: -8.97%"}, {"smiles": "CC(C)c1ccc(CNc2nc(-c3ccco3)nn2C(=O)c2ccc([N+](=O)[O-])cc2)cc1", "Potency": "inconclusive: 44.7 µM [inhibitor, partial curve]"}, {"smiles": "COCCCn1c(-c2ccccc2Cl)n[nH]c1=S", "Potency": "active: 7.94 µM"}, {"smiles": "CN1c2ccccc2C(=O)NC1c1ccc(Cl)cc1", "note": "(configuration not stated)", "activity change, negative = inhibition": "inactive: -5.73%"}, {"smiles": "C[n+]1ccccc1/C=N/O", "Potency": "active: 35.5 µM"}, {"smiles": "NS(=O)(=O)c1ccc(CNC(=O)c2ccc(NS(=O)(=O)c3cccs3)cc2)cc1", "activity change, negative = inhibition": "inactive: -4.79%"}, {"smiles": "CCN1CCc2nc3sc(C(=O)N4CCc5ccccc5C4)c(N)c3cc2C1", "Potency": "active: 79.4 µM"}, {"smiles": "CCc1ccc(NC(=O)C2=CC(c3ccc(OC)c(OC)c3)=NS(=O)(=O)N2C)cc1", "Potency": "inconclusive: 44.7 µM [inhibitor, partial curve]"}, {"smiles": "Cc1ccccc1-n1ncc2c([N+](=O)[O-])cc([N+](=O)[O-])cc21", "Potency": "active: 56.2 µM"}, {"smiles": "O=c1c2c3c(sc2n(CCN2CCCC2)c(=O)n1Cc1ccccc1)CCCCC3", "Potency": "inconclusive: 44.7 µM [inhibitor, partial curve]"}]}]}
